Patent publication US20180155450A1 (Sanofi, published 2018)

T1: recombinant human IL4 (human, UniProt P05112 25-153)
T1 construct: also called Antigen1
T1 sequence (looked up): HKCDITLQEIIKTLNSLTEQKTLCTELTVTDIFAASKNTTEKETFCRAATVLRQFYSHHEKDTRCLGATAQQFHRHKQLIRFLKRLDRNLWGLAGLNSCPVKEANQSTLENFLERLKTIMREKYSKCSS

B1: CODV-Ig Batch ID 103 (IL4 × IL13 on LC; L1=0, L2=1, L3=2, L4=4) (bispecific antibody)
chain 1: EVQLKESGPGLVAPGGSLSITCTVSGFSLTDSSINWVRQPPGKGLEWLGMIWGDGRIDYADALKSRLSISKDSSKSQVFLEMTSLRTDDTATYYCARDGYFPYAMDFWGQGTSVTVSSGGQVQLQQSGPELVKPGASVKISCKASGYSFTSYWIHWIKQRPGQGLEWIGMIDPSDGETRLNQRFQGRATLTVDESTSTAYMQLRSPTSEDSAVYYCTRLKEYGNYDSFYFDVWGAGTLVTVSSGGGG[letters of human IgG1 constant region not shown]
chain 2: DIQMTQSPASLSVSVGDTITLTCHASQNIDVWLSWFQQKPGNIPKLLIYKASNLHTGVPSRFSGSGSGTGFTLTISSLQPEDIATYYCQQAHSYPFTFGGGTKLEIKDIVLTQSPASLAVSLGQRATISCRASESVDSYGQSYMHWYQQKAGQPPKLLIYLASNLESGVPARFSGSGSRTDFTLTIDPVQAEDAATYYCQQNAEDSRTFGGGTKLEIKGRTVAAPSVFIFPPSDEQLKSGTASVVCLLNNFYPREAKVQWKVDNALQSGNSQESVTEQDSKDSTYSLSSTLTLSKADYEKHKVYACEVTHQGLSSPVTKSFNRGEC
B2: CODV-Ig Batch ID 112 (IL4 × IL13 on LC; L1=1, L2=1, L3=2, L4=4) (bispecific antibody)
chain 1: B1 chain 1
chain 2: DIQMTQSPASLSVSVGDTITLTCHASQNIDVWLSWFQQKPGNIPKLLIYKASNLHTGVPSRFSGSGSGTGFTLTISSLQPEDIATYYCQQAHSYPFTFGGGTKLEIKGDIVLTQSPASLAVSLGQRATISCRASESVDSYGQSYMHWYQQKAGQPPKLLIYLASNLESGVPARFSGSGSRTDFTLTIDPVQAEDAATYYCQQNAEDSRTFGGGTKLEIKGRTVAAPSVFIFPPSDEQLKSGTASVVCLLNNFYPREAKVQWKVDNALQSGNSQESVTEQDSKDSTYSLSSTLTLSKADYEKHKVYACEVTHQGLSSPVTKSFNRGEC
B3: CODV-Ig Batch ID 104 (IL4 × IL13 on LC; L1=0, L2=2, L3=2, L4=4) (bispecific antibody)
chain 1: B1 chain 1
chain 2: DIQMTQSPASLSVSVGDTITLTCHASQNIDVWLSWFQQKPGNIPKLLIYKASNLHTGVPSRFSGSGSGTGFTLTISSLQPEDIATYYCQQAHSYPFTFGGGTKLEIKDIVLTQSPASLAVSLGQRATISCRASESVDSYGQSYMHWYQQKAGQPPKLLIYLASNLESGVPARFSGSGSRTDFTLTIDPVQAEDAATYYCQQNAEDSRTFGGGTKLEIKGGRTVAAPSVFIFPPSDEQLKSGTASVVCLLNNFYPREAKVQWKVDNALQSGNSQESVTEQDSKDSTYSLSSTLTLSKADYEKHKVYACEVTHQGLSSPVTKSFNRGEC
B4: CODV-Ig Batch ID 131 (IL4 × IL13 on LC; L1=2, L2=2, L3=2, L4=4) (bispecific antibody)
chain 1: B1 chain 1
chain 2: DIQMTQSPASLSVSVGDTITLTCHASQNIDVWLSWFQQKPGNIPKLLIYKASNLHTGVPSRFSGSGSGTGFTLTISSLQPEDIATYYCQQAHSYPFTFGGGTKLEIKGGDIVLTQSPASLAVSLGQRATISCRASESVDSYGQSYMHWYQQKAGQPPKLLIYLASNLESGVPARFSGSGSRTDFTLTIDPVQAEDAATYYCQQNAEDSRTFGGGTKLEIKGGRTVAAPSVFIFPPSDEQLKSGTASVVCLLNNFYPREAKVQWKVDNALQSGNSQESVTEQDSKDSTYSLSSTLTLSKADYEKHKVYACEVTHQGLSSPVTKSFNRGEC
B5: CODV-Ig LC4:HC6 (IL4 VL-(Gly)-IL13 VL-(Gly2)-CL1 / IL13 VH-(Gly4)-IL4 VH-(Gly4)-CH1-Fc) (bispecific antibody, human IgG1, kappa)
heavy: EVQLKESGPGLVAPGGSLSITCTVSGFSLTDSSINWVRQPPGKGLEWLGMIWGDGRIDYADALKSRLSISKDSSKSQVFLEMTSLRTDDTATYYCARDGYFPYAMDFWGQGTSVTVSSGGGGQVQLQQSGPELVKPGASVKISCKASGYSFTSYWIHWIKQRPGQGLEWIGMIDPSDGETRLNQRFQGRATLTVDESTSTAYMQLRSPTSEDSAVYYCTRLKEYGNYDSFYFDVWGAGTLVTVSSGGGG[letters of human IgG1 constant region not shown]
light: DIQMTQSPASLSVSVGDTITLTCHASQNIDVWLSWFQQKPGNIPKLLIYKASNLHTGVPSRFSGSGSGTGFTLTISSLQPEDIATYYCQQAHSYPFTFGGGTKLEIKGDIVLTQSPASLAVSLGQRATISCRASESVDSYGQSYMHWYQQKAGQPPKLLIYLASNLESGVPARFSGSGSRTDFTLTIDPVQAEDAATYYCQQNAEDSRTFGGGTKLEIKGGRTVAAPSVFIFPPSDEQLKSGTASVVCLLNNFYPREAKVQWKVDNALQSGNSQESVTEQDSKDSTYSLSSTLTLSKADYEKHKVYACEVTHQGLSSPVTKSFNRGEC
notes: IgG1 format; also called Batch ID 123
B6: CODV-Ig Batch ID 105 (IL4 × IL13 on LC; L1=0, L2=2, L3=4, L4=4) (bispecific antibody)
chain 1: B5 heavy
chain 2: B3 chain 2
B7: CODV-Ig Batch ID 116 (IL4 × IL13 on LC; L1=1, L2=2, L3=1, L4=4) (bispecific antibody)
chain 1: EVQLKESGPGLVAPGGSLSITCTVSGFSLTDSSINWVRQPPGKGLEWLGMIWGDGRIDYADALKSRLSISKDSSKSQVFLEMTSLRTDDTATYYCARDGYFPYAMDFWGQGTSVTVSSGQVQLQQSGPELVKPGASVKISCKASGYSFTSYWIHWIKQRPGQGLEWIGMIDPSDGETRLNQRFQGRATLTVDESTSTAYMQLRSPTSEDSAVYYCTRLKEYGNYDSFYFDVWGAGTLVTVSSGGGG[letters of human IgG1 constant region not shown]
chain 2: B5 light
B8: CODV-Ig Batch ID 114 (IL4 × IL13 on LC; L1=1, L2=2, L3=0, L4=2) (bispecific antibody)
chain 1: EVQLKESGPGLVAPGGSLSITCTVSGFSLTDSSINWVRQPPGKGLEWLGMIWGDGRIDYADALKSRLSISKDSSKSQVFLEMTSLRTDDTATYYCARDGYFPYAMDFWGQGTSVTVSSQVQLQQSGPELVKPGASVKISCKASGYSFTSYWIHWIKQRPGQGLEWIGMIDPSDGETRLNQRFQGRATLTVDESTSTAYMQLRSPTSEDSAVYYCTRLKEYGNYDSFYFDVWGAGTLVTVSSGG[letters of human IgG1 constant region not shown]
chain 2: B5 light
B9: CODV-Ig Batch ID 120 (IL4 × IL13 on LC; L1=1, L2=2, L3=2, L4=2) (bispecific antibody)
chain 1: EVQLKESGPGLVAPGGSLSITCTVSGFSLTDSSINWVRQPPGKGLEWLGMIWGDGRIDYADALKSRLSISKDSSKSQVFLEMTSLRTDDTATYYCARDGYFPYAMDFWGQGTSVTVSSGGQVQLQQSGPELVKPGASVKISCKASGYSFTSYWIHWIKQRPGQGLEWIGMIDPSDGETRLNQRFQGRATLTVDESTSTAYMQLRSPTSEDSAVYYCTRLKEYGNYDSFYFDVWGAGTLVTVSSGG[letters of human IgG1 constant region not shown]
chain 2: B5 light
B10: CODV-Ig Batch ID 115 (IL4 × IL13 on LC; L1=1, L2=2, L3=0, L4=4) (bispecific antibody)
chain 1: EVQLKESGPGLVAPGGSLSITCTVSGFSLTDSSINWVRQPPGKGLEWLGMIWGDGRIDYADALKSRLSISKDSSKSQVFLEMTSLRTDDTATYYCARDGYFPYAMDFWGQGTSVTVSSQVQLQQSGPELVKPGASVKISCKASGYSFTSYWIHWIKQRPGQGLEWIGMIDPSDGETRLNQRFQGRATLTVDESTSTAYMQLRSPTSEDSAVYYCTRLKEYGNYDSFYFDVWGAGTLVTVSSGGGG[letters of human IgG1 constant region not shown]
chain 2: B5 light
B11: CODV-Ig LC4:HC4 (IL4 VL-(Gly)-IL13 VL-(Gly2)-CL1 / IL13 VH-(Gly2)-IL4 VH-(Gly4)-CH1-Fc) (bispecific antibody, human IgG1, kappa)
heavy: B1 chain 1
light: B5 light
notes: IgG1 format; also called HC4:LC4; Batch ID 121

Target: T1, recombinant human IL4
Assay: SPR, Biacore 3000; CODV-Ig captured by anti-human Fc, antigen as analyte

| Kd [nM] | Binder |
| --- | --- |
| 0.004 | B1 |
| 0.005 | B2 |
| 0.003 | B3 |
| 0.005 | B4 |
| 0.009 | B5 |
| 0.006 | B6 |
| 0.005 | B7 |
| 0.004 | B8 |
| 0.006 | B9 |
| 0.011 | B10 |

Target: T2, recombinant human IL13 (human, UniProt P35225 in part, limits assumed)
T2 construct: also called Antigen2
T2 sequence (P35225 35-146 limits assumed): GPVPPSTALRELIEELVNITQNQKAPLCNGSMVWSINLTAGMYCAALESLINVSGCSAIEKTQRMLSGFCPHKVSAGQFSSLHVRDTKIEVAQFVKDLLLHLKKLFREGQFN
Assay: as above

| Kd [nM] | Binder |
| --- | --- |
| 0.124 | B1 |
| 0.055 | B2 |
| 0.137 | B3 |
| 0.05 | B4 |
| 0.094 | B6 |
| 0.074 | B7 |
| 0.075 | B8 |
| 0.07 | B9 |
| 0.062 | B10 |

Target: T1, recombinant human IL4
Assay: SPR, BIACORE 3000; antibody captured by anti-human Fc, antigen 0-25 nM as analyte

| Kd [nM] | koff [s⁻¹] | kon [M⁻¹ s⁻¹] | Binder |
| --- | --- | --- | --- |
| 0.0111 | 0.00033 | 2.97e+07 | B5 |
| 0.00914 | 0.000289 | 3.16e+07 | B11 |
